Reference: PubChem BioAssay AID488969 (Vanderbilt High Throughput Screening Facility, 2010)
Whole data set: some 110,000 compounds, median “z-score” near -0.1, cut for the highest 2% near 2. This is one part of the list.

Target: Metabotropic glutamate receptor 8 (Rattus norvegicus) (UniProt P70579)
Experiment: rat mGluR8 modulators via GIRK flux, primary screen, cell-based, thallium flux, HTS (AID 488969)
Conditions: HEK293 rat mGluR8, GIRK (G protein-gated inwardly rectifying potassium channel) thallium flux, FluoZin2; at 10 µM; stronger effect = higher value; submaximal glutamate (EC20) added with thallium

UniProt P70579, sequence (P70579 whole entry, looked up): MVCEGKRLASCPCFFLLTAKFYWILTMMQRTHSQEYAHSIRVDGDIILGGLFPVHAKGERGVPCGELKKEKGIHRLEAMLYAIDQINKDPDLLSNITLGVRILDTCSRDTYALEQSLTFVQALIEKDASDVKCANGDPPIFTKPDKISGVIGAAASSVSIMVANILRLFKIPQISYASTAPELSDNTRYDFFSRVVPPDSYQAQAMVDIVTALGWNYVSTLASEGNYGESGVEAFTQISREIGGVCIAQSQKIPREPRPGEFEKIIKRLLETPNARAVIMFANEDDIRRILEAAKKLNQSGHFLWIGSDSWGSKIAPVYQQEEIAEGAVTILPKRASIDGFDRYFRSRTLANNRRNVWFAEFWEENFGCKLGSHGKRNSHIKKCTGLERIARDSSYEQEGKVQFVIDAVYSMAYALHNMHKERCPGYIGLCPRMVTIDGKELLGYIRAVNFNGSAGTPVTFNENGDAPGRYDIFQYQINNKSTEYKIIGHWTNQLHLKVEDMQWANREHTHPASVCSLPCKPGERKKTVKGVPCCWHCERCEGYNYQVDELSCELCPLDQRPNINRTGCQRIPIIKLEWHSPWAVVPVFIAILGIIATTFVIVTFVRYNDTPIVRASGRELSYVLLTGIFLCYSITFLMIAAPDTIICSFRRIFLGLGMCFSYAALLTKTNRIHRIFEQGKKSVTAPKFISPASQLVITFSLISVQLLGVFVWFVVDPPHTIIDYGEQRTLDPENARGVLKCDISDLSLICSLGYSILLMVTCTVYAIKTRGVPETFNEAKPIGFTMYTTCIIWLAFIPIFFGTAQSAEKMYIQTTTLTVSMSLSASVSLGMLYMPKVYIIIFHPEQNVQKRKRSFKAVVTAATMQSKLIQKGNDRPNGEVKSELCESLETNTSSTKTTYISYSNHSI

Structure (SMILES) | z-score
CCC1CC(CSc2ncn[nH]2)OC1=O (stereo unspecified) | -0.145
O=c1nc2ccccc2c2n1CC(CN1CCN(c3ccc(F)cc3)CC1)N2 (stereo unspecified) | -0.473
O=C(N/N=C/C(Br)=C\c1ccccc1)c1ccc2nc[nH]c2c1 | 0.472
Cc1cc(C)nc(N2N=C(C(C)(C)C)CC2=O)n1 | -0.168
N#Cc1ccc(N2CCCC2C(=O)O)c([N+](=O)[O-])c1 (stereo unspecified) | -0.206
CCN(CCCNC(=O)C1CCN(S(=O)(=O)N2CCOCC2)CC1)c1cccc(C)c1 | 0.808
O=C(CSC1=NCCS1)Nc1nc2ccccc2s1 | -0.264
CN1CCN(CCCNC(=O)C2CC(=O)N(C3CCCCC3)C2)CC1 (stereo unspecified) | -0.351
CCOC(=O)C1CCCN(C2CC(=O)N(c3ccc(C)c(C)c3)C2=O)C1 (stereo unspecified) | -1.32
CCC(=O)Nc1cccc(NC(=O)CSc2nnc(-c3ccc(NS(C)(=O)=O)cc3)n2C)c1 | -0.39
CCc1ccc(OCCCC(=O)NCc2ccccc2)cc1 | -0.572
CN(C)c1ccc(NC(=O)c2cn(-c3ccccc3)nc2-c2cccs2)cc1 | 0.431
CCOC(=O)c1cnc(SCc2nc(N)nc(Nc3ccc(C)cc3)n2)nc1N | -0.106
Cc1cccc(Sc2nc(-c3ccccc3)ccc2C#N)c1 | 0.296
Cc1cc(C)c(C#N)c(SCc2ccc(C#N)cc2)n1 | 0.177
O=C(O)C1CC=C(Cl)CC1C(=O)NCc1ccccc1 (stereo unspecified) | -0.00639

Structure (SMILES) | z-score
FC(F)(F)COc1nc(N2CCCCC2)nc(N2CCNCC2)n1 | 2.6
CCC(C)C(NC(=O)C1CCC(C)CC1)C(=O)Nc1cc(OC)ccc1OC (stereo unspecified) | -0.422
O=[N+]([O-])c1ccccc1S(=O)(=O)Oc1ccccc1/C=N/n1cnnc1 | -0.648
N#Cc1c(-c2ccccc2)ccn(Cc2cccc(Cl)c2)c1=O | -0.115
CC(=O)NS(=O)(=O)c1ccc(NC(=O)c2cc(-c3ccc(C)cc3)nc3ccccc23)cc1 | -0.253
O=C(C1CCC(C(=O)N2CCCCC2)CC1)N1CCCCC1 (stereo unspecified) | 0.0509
Cn1nc(-c2ccc(OCC(N)=O)cc2)c2ccccc2c1=O | -0.0429
CCC(=O)NC(=S)Nc1ccccc1OC | -0.0141
Cc1ccc(CNC(=O)c2ccc3nc4[nH]c5ccccc5c4nc3c2)cc1 | -0.472
Cc1cccc(N(CC(=O)NC2CCCC2)C(=O)CCCC(=O)Nc2ccccn2)c1 | 0.15
CCOC(=O)N1CCC(Nc2c(-c3ccccc3)c(=O)c2=O)CC1 | -0.162
COc1ccc(NC(=O)COC(=O)[C@@H]2CCCN2C(=O)c2cccs2)c(OC)c1 | -0.344
COC(=O)C(C(=O)NCC1CCCO1)C1CCCC1 (stereo unspecified) | -0.0779
O=C(CCc1ccc(S(=O)(=O)NCc2ccccc2)cc1)NCc1ccc2c(c1)OCO2 | -0.337
Cc1cccc(OCCSc2nc3c([nH]2)c(=N)ncn3Cc2ccccc2)c1 | -0.0916
